6 molecules from paper PMC7196074 can be followed below.

Amino acid sequences for entries named in this document (tags omitted). A change or cut given only in a name is not applied to a line headed by its entry. Residues count along the entry.
UniProt P21187: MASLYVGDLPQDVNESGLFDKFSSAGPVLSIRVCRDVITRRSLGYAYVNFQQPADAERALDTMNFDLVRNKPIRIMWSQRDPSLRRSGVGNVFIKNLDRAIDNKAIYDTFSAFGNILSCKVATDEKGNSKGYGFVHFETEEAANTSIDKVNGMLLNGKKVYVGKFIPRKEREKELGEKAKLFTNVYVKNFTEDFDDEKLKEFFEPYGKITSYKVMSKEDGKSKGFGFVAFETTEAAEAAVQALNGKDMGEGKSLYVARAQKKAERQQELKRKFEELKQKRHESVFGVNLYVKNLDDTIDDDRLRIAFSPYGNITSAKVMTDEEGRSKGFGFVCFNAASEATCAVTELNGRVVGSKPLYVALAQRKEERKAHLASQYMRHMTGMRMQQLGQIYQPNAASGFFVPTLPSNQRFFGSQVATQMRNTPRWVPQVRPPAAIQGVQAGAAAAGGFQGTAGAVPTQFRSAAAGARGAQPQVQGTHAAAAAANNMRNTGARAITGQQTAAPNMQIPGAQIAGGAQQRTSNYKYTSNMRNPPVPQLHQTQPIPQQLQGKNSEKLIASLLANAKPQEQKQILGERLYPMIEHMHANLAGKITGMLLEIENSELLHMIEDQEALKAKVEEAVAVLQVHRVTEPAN
GST-PABC (PABP): residues 552-629 of P21187

These are yes or no findings as the source states them, for the method shown. In cells and extracts the contact can be indirect. Some binding calls cover weakened binding; strength is not graded here. Sequences can lack the tags named with a protein.

Test [1] addresses T1, GFP-Aub (Aubergine) (Drosophila) (UniProt O76922).
T1 sequence: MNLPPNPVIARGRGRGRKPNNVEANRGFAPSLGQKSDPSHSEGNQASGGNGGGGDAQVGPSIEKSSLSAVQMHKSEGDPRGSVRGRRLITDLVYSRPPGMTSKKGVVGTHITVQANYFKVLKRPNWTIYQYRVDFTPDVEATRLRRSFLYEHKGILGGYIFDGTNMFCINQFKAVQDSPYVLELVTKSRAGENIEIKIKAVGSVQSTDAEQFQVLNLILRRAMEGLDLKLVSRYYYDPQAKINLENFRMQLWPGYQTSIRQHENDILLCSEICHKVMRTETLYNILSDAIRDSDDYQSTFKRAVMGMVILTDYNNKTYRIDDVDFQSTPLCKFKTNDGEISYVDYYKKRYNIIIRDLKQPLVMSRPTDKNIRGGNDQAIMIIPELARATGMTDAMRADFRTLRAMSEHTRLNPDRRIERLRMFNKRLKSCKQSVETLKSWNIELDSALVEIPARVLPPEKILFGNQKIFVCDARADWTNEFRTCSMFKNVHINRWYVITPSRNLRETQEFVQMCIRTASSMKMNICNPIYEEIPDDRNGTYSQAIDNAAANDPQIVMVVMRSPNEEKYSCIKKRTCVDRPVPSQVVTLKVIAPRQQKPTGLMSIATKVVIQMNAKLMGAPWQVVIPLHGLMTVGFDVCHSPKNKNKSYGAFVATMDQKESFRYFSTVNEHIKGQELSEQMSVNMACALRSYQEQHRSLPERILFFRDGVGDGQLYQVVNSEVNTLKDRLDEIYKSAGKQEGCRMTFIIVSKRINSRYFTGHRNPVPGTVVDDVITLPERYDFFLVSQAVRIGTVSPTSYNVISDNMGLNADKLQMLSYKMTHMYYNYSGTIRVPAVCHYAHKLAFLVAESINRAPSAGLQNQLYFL
Description: co-IP; 0-2 h embryo extracts in IP buffer (20 mM Tris pH 7.5, 150 mM NaCl, 0.2% NP-40) with RNase inhibitor; IP with anti-GFP, anti-HA or anti-PABP, 2.5 h at 4 °C; western blot. (In general: In western blotting, separated proteins are transferred to a membrane and probed.)

Test [2] deals with T2, FLAG-FFL-Aub (Drosophila) (UniProt O76922).
T2 sequence: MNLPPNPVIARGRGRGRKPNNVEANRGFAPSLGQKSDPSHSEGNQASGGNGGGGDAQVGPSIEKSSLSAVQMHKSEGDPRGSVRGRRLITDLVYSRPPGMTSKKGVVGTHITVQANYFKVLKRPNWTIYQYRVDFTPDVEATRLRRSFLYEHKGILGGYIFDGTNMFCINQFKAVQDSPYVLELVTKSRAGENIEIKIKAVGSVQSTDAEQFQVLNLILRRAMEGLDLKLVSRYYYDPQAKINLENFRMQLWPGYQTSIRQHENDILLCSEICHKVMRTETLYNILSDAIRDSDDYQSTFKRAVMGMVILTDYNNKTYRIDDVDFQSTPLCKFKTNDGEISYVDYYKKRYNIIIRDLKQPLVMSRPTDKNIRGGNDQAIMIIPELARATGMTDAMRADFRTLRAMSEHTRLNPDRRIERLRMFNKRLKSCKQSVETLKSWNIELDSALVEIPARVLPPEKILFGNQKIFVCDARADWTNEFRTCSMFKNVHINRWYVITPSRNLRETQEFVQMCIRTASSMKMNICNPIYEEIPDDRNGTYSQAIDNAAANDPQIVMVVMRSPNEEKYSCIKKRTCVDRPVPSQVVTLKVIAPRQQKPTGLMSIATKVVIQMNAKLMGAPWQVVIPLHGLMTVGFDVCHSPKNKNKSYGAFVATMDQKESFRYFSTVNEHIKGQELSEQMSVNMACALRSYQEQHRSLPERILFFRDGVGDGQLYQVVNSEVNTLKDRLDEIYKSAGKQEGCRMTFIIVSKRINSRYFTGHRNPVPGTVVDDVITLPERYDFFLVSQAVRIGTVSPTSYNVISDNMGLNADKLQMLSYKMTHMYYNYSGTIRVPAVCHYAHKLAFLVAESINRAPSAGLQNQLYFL
The test can be described thus: co-IP; LUMIER (quantitative luminescence-based coIP): FLAG-FFL-Aub and HA-RL fusions transiently expressed in S2R+ cells; lysates in HNTG buffer on plates coated with anti-FLAG, 3 h on ice; Renilla and Firefly luciferase activities read; control without antibody.

Test [3] deals with GST-PABC (PABP) (Drosophila) (UniProt P21187). Description: pull-down; GST fusions of PABP domains immobilised on glutathione-Sepharose beads; in vitro-translated HA-Aub fragments; 50 mM HEPES pH 7.5, 500 mM NaCl, 0.5% NP-40, with 0.2 µg/µL RNase A; 1 h at 4 °C then 30 min at room temperature; anti-HA western blot; only the target purified.

In the case of “poly(A)-binding protein (PABP), endogenous (from UniProt P21187 1-634)”, in test [1], the binding entry was “binds”. Consider HA-RL-PABP (from UniProt P21187 1-634), for which the binding result in test [2] is on record as “binds”.

B1: HA-Aub(476-866) (domain or fragment, UniProt O76922 476-866)
chain: DWTNEFRTCSMFKNVHINRWYVITPSRNLRETQEFVQMCIRTASSMKMNICNPIYEEIPDDRNGTYSQAIDNAAANDPQIVMVVMRSPNEEKYSCIKKRTCVDRPVPSQVVTLKVIAPRQQKPTGLMSIATKVVIQMNAKLMGAPWQVVIPLHGLMTVGFDVCHSPKNKNKSYGAFVATMDQKESFRYFSTVNEHIKGQELSEQMSVNMACALRSYQEQHRSLPERILFFRDGVGDGQLYQVVNSEVNTLKDRLDEIYKSAGKQEGCRMTFIIVSKRINSRYFTGHRNPVPGTVVDDVITLPERYDFFLVSQAVRIGTVSPTSYNVISDNMGLNADKLQMLSYKMTHMYYNYSGTIRVPAVCHYAHKLAFLVAESINRAPSAGLQNQLYFL
Regarding B1, the binding entry in test [3] is given as “no binding”.

B2: HA-RL-eIF3h (protein, UniProt Q9U9Q4 1-338)
chain: MANRANRHAARTEDSDNTINYVQCDGLAVMKMVKHCHEESSNMDLAQGALLGLVVDKCLEITNCFPFPKSGDETMDEEMYQLTVMRRLRRVNVDHLHVGWYQSSDVGNSLSMALLESQYHYQTSIEESVVVVYDTQKSSRGFLCLKAYRLTPQAIQMYKDGDFTPEAFRTLKVGYENLFAEIPIVIKNSPLTNIMMSELNELLPEDKGHNFLDLGTATVLENQMRSLIERVDELYQEAVRYNKYQQVVFKQDTEKHRALAKLAAENAVRTSKGEPTVPEEEVIKQFRPMTAPNRLTATITSGQINTHAQHIAQFCSQSLAKLFITESLQIAKEAKETK
With B2, in test [2], the binding result is “binds”.

B3: HA-RL-eIF3b (protein, UniProt Q0E940 1-690)
chain: MAKKKSEEHSGTDANDSDYQEEPNFDDPPGFVDNISDEDLLGDMLAQRPSEADGVESVVVVDNIPKVEPVRLEKLKLVINKLFSNYGEIVNVVYPVDEEGKTKGYAFMEYKQARQAEEAVKKLNNHRLDKNHTFAVNLFTDFQKYENIPEKWEPPTVQTFKVQSDLYNFINDPDTYDQYCVAAETAPNCVQVGFWQNVLPEPFELETRERFTDTFVKWSPLGTYVVTFHKPGVAIWGGSSFQKIQKFPHPGTQFVEFSPCENYLVTYGPTPTGQKIIIWDIRTGAEKRSFVADGMSVLSMFRWSHDDKFVARMGENSIHIYETPSFYLLDLKSIKIPGIRGFSWSPTDNVIAYWVEEQNQIPARVTLMEIPKKREIRNKNLFHVADCKLHWQKSGDYLCVKVDRYSKLKKDKKDLDVKFLGMFYNFEIFHMREKEIPVDSVEIRELILAFAWEPVGNKFSIIHGETNSSNVSFYEVNKGVKPSLVKRLEKKSCTHLFWSPRGQFIVMANLTMGTFEFVDSTNDYIITASPDHFRASEVEWDPTGRYVVTGVSSWKVKEDTGFNMYTFQGRIIKRTILKNFVQFLWRPRPPTLLSEEKQKEIKKNLKKYYAAFEQKDRLRLTRASKELLEKRSQLRETFMEYRNKRIAEWAEQKSRRIMLRGHVDTDNLETDEVDEEIVEFLVKEEVTLLE
Take B3: the binding result in test [2] is recorded as “binds”.

B4: HA-Aub(1-482) (domain or fragment, UniProt O76922 1-482)
chain: MNLPPNPVIARGRGRGRKPNNVEANRGFAPSLGQKSDPSHSEGNQASGGNGGGGDAQVGPSIEKSSLSAVQMHKSEGDPRGSVRGRRLITDLVYSRPPGMTSKKGVVGTHITVQANYFKVLKRPNWTIYQYRVDFTPDVEATRLRRSFLYEHKGILGGYIFDGTNMFCINQFKAVQDSPYVLELVTKSRAGENIEIKIKAVGSVQSTDAEQFQVLNLILRRAMEGLDLKLVSRYYYDPQAKINLENFRMQLWPGYQTSIRQHENDILLCSEICHKVMRTETLYNILSDAIRDSDDYQSTFKRAVMGMVILTDYNNKTYRIDDVDFQSTPLCKFKTNDGEISYVDYYKKRYNIIIRDLKQPLVMSRPTDKNIRGGNDQAIMIIPELARATGMTDAMRADFRTLRAMSEHTRLNPDRRIERLRMFNKRLKSCKQSVETLKSWNIELDSALVEIPARVLPPEKILFGNQKIFVCDARADWTNEFR
In the case of B4, the binding result in test [3] is reported as “no binding”.
